Results on 29 molecules are retold here after PubChem BioAssay AID488969 (Vanderbilt High Throughput Screening Facility, 2010).

Over roughly 110,000 compounds, “z-score” has its median near -0.1; the highest 2% begin near 2. This is one part of the list. Activity calls are given as the source filed them.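 The calls were made as follows: active = z-score in the third read window above 3 or below -3; inactive = the rest.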

The target of the assay is Metabotropic glutamate receptor 8 (Rattus norvegicus) (UniProt P70579). In words: rat mGluR8 modulators via GIRK flux, primary screen, cell-based, thallium flux, HTS (AID 488969). To be noted: HEK293 rat mGluR8, GIRK (G protein-gated inwardly rectifying potassium channel) thallium flux, FluoZin2; at 10 µM; stronger effect = higher value; submaximal glutamate (EC20) added with thallium.
Chain of UniProt P70579 (P70579 whole entry, looked up): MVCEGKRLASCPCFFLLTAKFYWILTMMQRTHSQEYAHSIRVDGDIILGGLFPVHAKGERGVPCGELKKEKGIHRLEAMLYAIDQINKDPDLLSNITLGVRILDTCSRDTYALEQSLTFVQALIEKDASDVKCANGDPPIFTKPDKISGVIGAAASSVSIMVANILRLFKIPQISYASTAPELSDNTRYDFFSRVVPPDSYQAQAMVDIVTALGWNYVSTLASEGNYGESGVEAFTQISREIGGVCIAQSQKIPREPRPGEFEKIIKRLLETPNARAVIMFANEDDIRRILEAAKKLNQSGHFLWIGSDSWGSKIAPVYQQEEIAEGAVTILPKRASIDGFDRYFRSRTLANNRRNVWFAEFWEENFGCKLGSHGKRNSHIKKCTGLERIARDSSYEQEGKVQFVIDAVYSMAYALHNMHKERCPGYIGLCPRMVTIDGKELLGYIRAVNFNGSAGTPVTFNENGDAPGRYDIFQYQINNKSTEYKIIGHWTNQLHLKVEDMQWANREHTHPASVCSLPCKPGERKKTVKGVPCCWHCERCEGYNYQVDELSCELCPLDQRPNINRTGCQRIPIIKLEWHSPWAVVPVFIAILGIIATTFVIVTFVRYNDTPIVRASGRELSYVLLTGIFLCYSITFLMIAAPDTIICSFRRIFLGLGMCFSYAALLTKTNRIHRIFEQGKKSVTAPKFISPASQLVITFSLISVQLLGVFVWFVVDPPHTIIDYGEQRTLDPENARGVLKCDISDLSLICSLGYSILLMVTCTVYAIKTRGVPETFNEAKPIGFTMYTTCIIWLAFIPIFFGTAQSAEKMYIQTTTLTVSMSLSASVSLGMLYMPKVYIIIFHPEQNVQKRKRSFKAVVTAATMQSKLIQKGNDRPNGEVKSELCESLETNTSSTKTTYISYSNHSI
`COc1ccc(NC(=O)CC2C(=O)N(C)C(=S)N2Cc2cccs2)cc1` (centres undefined) yielded a z-score of 0.108.

For the molecule `Cc1ccc2oc(=O)c3cnn(CC(=O)N4CCc5ccccc5C4)c3c2c1`, the z-score was active: -3.05.

In turn, `CCOc1ccccc1C(=O)N(Cc1ccccc1)Cc1cc2cc3c(cc2[nH]c1=O)OCCO3` returned a z-score of 0.283. As to `COc1cc(/C=C(/C#N)c2ccccc2F)ccc1OCc1ccccc1`, the z-score came out at 0.205. `COC(=O)c1ccccc1NC(=O)CN(c1ccc(OC)cc1)S(C)(=O)=O` showed a z-score of -0.0266.

Regarding `COc1ccc(C2C=C(Nc3ccccc3)C(=O)N2c2ccccc2)cc1OC` (centres undefined), the z-score is -0.22.

Turning to `O=C(Nc1nc2ccc(S(=O)(=O)N3CCCCC3)cc2s1)C1CCCO1` (centres undefined), the z-score was -0.0835. Molecule `CC(O)c1n(C)c(Cl)c[n+]1C` (centres undefined) displayed a z-score of -0.00128. The figure for `O=C(CSc1n[nH]c(-c2ccncc2)n1)NCCc1ccccc1` is -0.989. The figure for `COc1ccc(CC(=O)Oc2cc(C)[nH]c(=O)c2[N+](=O)[O-])cc1` is 0.172; for `CN=C1SC(CC(=O)Nc2ccc(N3CCOCC3)cc2)C(=O)N1C` (centres undefined) it is 0.0196. The figure for `Cc1ccc(-c2nn3c(C)nnc3s2)cc1NC(=O)CSc1ccc(Cl)cc1` is -1.61; for `CC(C)CC(NS(=O)(=O)c1ccc2c(c1)oc(=O)n2C)C(=O)N1CC=C(c2ccccc2)CC1` (centres undefined) it is -0.272; for `Cn1c(=O)cc(OCCCC(=O)NCc2ccco2)c2ccccc21` it is -0.291. In turn, `COc1cccc(CNC(=O)CCCNS(=O)(=O)c2cccs2)c1` displayed a z-score of 0.635. With `CCn1c(SCC(=O)Nc2ccccc2C(=O)OC)nnc1-c1cccc(C)c1`, the z-score is -2.11. In turn, `COc1ccc2cc(CN(CCc3ccccc3)Cc3nnnn3CC3CCCO3)c(=O)[nH]c2c1` (centres undefined) yielded a z-score of 0.287.

For the molecule `Cc1onc(-c2c(Cl)cccc2Cl)c1C(=O)N1CCc2ccccc2C1`, the z-score worked out at 0.0144. The figure for `CN(Cc1ccccc1)C(=O)c1ccccc1NC(=O)c1ccco1` is -0.926. The molecule `CCOC(=O)Cc1csc(NC(=O)CSc2nnc(-c3cccnc3)n2Cc2ccco2)n1` had a z-score of -0.85. `COC(=O)c1ccc(CSc2nnc(C)n2N)o1` registered a z-score of -0.0453. Molecule `O=C(Cn1cnc2ccccc21)NCc1ccccc1` gave a z-score of 0.289. In the case of `COC(=O)c1ccccc1NC(=O)Cn1c(=O)oc2ccc(Cl)cc21`, the z-score was -0.469. With `Cc1csc(NC(=O)CSc2nc3ccccc3c3c2CCCC3)n1`, the z-score is -0.385. The figure for `COc1cc(C)ccc1OCCOc1c(C)cccc1Cl` is 0.489. Molecule `CC(C)CC(NC(=O)c1ccc(Cl)cc1)C(=O)OCC(=O)c1ccc2c(c1)NC(=O)CO2` (centres undefined) returned a z-score of 0.362. `CCn1ncc(NC(=O)Nc2cccc(C(F)(F)F)c2)c1C(N)=O`: the z-score came out at 0.142. On to `Cc1ccc2c(c1)/C(=N/OC(=O)c1ccc(F)cc1)CCS2`, for which the z-score was found to be 0.238. In turn, `O=C(Cn1nnc(-c2ccccc2)n1)N/N=C/c1cccc([N+](=O)[O-])c1` showed a z-score of -0.0724.
